Source: the supplement of paper PMC3334620
Over roughly 33,000 sequences, “E-score (-0.5 to 0.5)” has its median near -0.043; the highest 2% begin near 0.37. This is one part of the list.

Biological target: T1, Upc2 (UniProt Q12151)
T1 sequence: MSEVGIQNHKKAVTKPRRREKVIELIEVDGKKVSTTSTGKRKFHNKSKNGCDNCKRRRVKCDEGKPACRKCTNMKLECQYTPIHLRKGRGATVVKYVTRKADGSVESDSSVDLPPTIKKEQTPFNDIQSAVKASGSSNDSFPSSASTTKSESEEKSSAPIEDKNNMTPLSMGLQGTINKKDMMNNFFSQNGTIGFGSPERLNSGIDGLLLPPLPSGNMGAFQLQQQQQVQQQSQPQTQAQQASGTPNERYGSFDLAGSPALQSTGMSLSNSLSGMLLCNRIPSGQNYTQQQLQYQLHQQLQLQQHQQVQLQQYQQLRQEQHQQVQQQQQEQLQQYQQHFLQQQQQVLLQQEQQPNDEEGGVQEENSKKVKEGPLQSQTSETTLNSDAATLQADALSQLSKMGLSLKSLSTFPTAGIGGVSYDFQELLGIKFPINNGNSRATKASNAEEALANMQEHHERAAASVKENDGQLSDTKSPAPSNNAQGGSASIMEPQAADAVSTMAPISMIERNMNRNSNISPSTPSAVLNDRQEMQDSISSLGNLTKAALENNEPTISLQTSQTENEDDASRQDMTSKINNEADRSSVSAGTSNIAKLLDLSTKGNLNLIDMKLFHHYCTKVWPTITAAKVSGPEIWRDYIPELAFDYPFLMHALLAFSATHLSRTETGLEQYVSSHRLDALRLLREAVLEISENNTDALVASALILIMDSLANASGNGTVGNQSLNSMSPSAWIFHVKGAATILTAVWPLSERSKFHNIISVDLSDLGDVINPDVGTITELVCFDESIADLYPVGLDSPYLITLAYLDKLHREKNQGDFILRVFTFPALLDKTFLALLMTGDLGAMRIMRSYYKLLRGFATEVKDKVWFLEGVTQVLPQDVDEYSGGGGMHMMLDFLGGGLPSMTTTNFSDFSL
Assay: PBM E-score (8-mer binding enrichment) (E-score (-0.5 to 0.5)); higher = stronger / more preferred TF binding; most listed sequences are background and not binding sites
Details: protein concentration: 200 nM; construct: GST-full length
Procedure, shortened: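 For each ungapped eight-base word taken together with its reverse complement, the Universal PBM Analysis Suite assigned an E-score. Binding data came from GST-tagged yeast transcription factors, applied at about 100-200 nM, on universal all-10-mer Agilent arrays made double-stranded by primer extension. Fluorescent anti-GST marked bound protein, and scans were normalised with masliner.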

Question: Which “PBM E-score” value does the source give for CGCATTCC here?
Answer: -0.298

Question: For CGCCGCTC, which “PBM E-score” value is on record?
Answer: -0.0776

Question: ATGATATC was tested. Which “PBM E-score” value did it give?
Answer: 0.0825

Question: For ATGAGCCA, which “PBM E-score” value is on record?
Answer: -0.0949

Question: For CCCCACGC, which “PBM E-score” value is on record?
Answer: -0.291

Question: Which “PBM E-score” value does the source give for CAGGGATC here?
Answer: -0.203

Question: With GACAAATA as the sequence, how does the “PBM E-score” value read?
Answer: 0.046

Question: How did the “PBM E-score” value turn out when AGGACTCG was run?
Answer: 0.0672

Question: TGATTGCA was tested. Which “PBM E-score” value did it give?
Answer: -0.00951

Question: With ACCCGCAC as the sequence, how does the “PBM E-score” value read?
Answer: 0.00507

Question: With CAGACGGG as the sequence, how does the “PBM E-score” value read?
Answer: -0.261

Question: Which “PBM E-score” value does the source give for AGGATTGC here?
Answer: -0.128

Question: With AAATCCCG as the sequence, how does the “PBM E-score” value read?
Answer: -0.0108

Question: Which “PBM E-score” value does the source give for CGAGAATC here?
Answer: 0.189

Question: Which “PBM E-score” value does the source give for ATCGACCA here?
Answer: -0.148

Question: Which “PBM E-score” value does the source give for ACACAATC here?
Answer: -0.0928

Question: How did the “PBM E-score” value turn out when CCCGCCTA was run?
Answer: 0.113

Question: How did the “PBM E-score” value turn out when GGATTAAC was run?
Answer: 0.0446

Question: With CGTCTAGC as the sequence, how does the “PBM E-score” value read?
Answer: 0.0496

Question: For AATAAGAC, which “PBM E-score” value is on record?
Answer: -0.0862

Question: How did the “PBM E-score” value turn out when AAGCCCGA was run?
Answer: -0.159

Question: For CACTATTC, which “PBM E-score” value is on record?
Answer: -0.0745

Question: Which “PBM E-score” value does the source give for AAGGATGA here?
Answer: -0.191

Question: With CATGCACG as the sequence, how does the “PBM E-score” value read?
Answer: -0.0673

Question: How did the “PBM E-score” value turn out when AAGTTCGG was run?
Answer: -0.0746

Question: Which “PBM E-score” value does the source give for AAGAGATG here?
Answer: -0.198

Question: Which “PBM E-score” value does the source give for CTGGACCA here?
Answer: -0.153

Question: With TGTCAGAA as the sequence, how does the “PBM E-score” value read?
Answer: -0.159

Question: How did the “PBM E-score” value turn out when GCTACAAA was run?
Answer: 0.0259

Question: ACGTTGAA was tested. Which “PBM E-score” value did it give?
Answer: 0.0392

Question: For ATGCAACC, which “PBM E-score” value is on record?
Answer: 0.00387

Question: Which “PBM E-score” value does the source give for AGACGTTA here?
Answer: -0.0933

Question: How did the “PBM E-score” value turn out when GACCTTGA was run?
Answer: -0.143

Question: For AGGTAGGG, which “PBM E-score” value is on record?
Answer: -0.164

Question: AAACATCA was tested. Which “PBM E-score” value did it give?
Answer: -0.11

Question: For AGAATTCC, which “PBM E-score” value is on record?
Answer: -0.11

Question: With GGTGCCAA as the sequence, how does the “PBM E-score” value read?
Answer: -0.187

Question: How did the “PBM E-score” value turn out when ACACTTGG was run?
Answer: -0.161

Question: ATCGGCTC was tested. Which “PBM E-score” value did it give?
Answer: -0.0153

Question: With ACTTCGAG as the sequence, how does the “PBM E-score” value read?
Answer: -0.178

Question: CTGGTCGA was tested. Which “PBM E-score” value did it give?
Answer: -0.182

Question: How did the “PBM E-score” value turn out when GATAGTTA was run?
Answer: 0.202

Question: With AATTCGAA as the sequence, how does the “PBM E-score” value read?
Answer: -0.0411

Question: For CTAGCTCA, which “PBM E-score” value is on record?
Answer: -0.0951

Question: How did the “PBM E-score” value turn out when CATGGATC was run?
Answer: -0.276

Question: How did the “PBM E-score” value turn out when AGTATGCC was run?
Answer: -0.189

Question: Which “PBM E-score” value does the source give for AGGAGCAA here?
Answer: -0.253

Question: For CACGTGAG, which “PBM E-score” value is on record?
Answer: -0.248

Question: For GCCCGATA, which “PBM E-score” value is on record?
Answer: -0.0847

Question: Which “PBM E-score” value does the source give for CCGCAAAG here?
Answer: 0.0459

Question: With ACGGTTTC as the sequence, how does the “PBM E-score” value read?
Answer: 0.137

Question: How did the “PBM E-score” value turn out when GCACATAC was run?
Answer: -0.0676

Question: For ACGTCTCA, which “PBM E-score” value is on record?
Answer: 0.00539

Question: How did the “PBM E-score” value turn out when TCCGAGCA was run?
Answer: 0.176

Question: For ACCTAGCA, which “PBM E-score” value is on record?
Answer: -0.0633

Question: For CCAAAGGC, which “PBM E-score” value is on record?
Answer: -0.134

Question: For AAGATATG, which “PBM E-score” value is on record?
Answer: -0.0829

Question: Which “PBM E-score” value does the source give for GAAGGCAA here?
Answer: -0.0802

Question: With CGTAGTAA as the sequence, how does the “PBM E-score” value read?
Answer: 0.0705

Question: AATCCAGG was tested. Which “PBM E-score” value did it give?
Answer: 0.0108

Question: Which “PBM E-score” value does the source give for AATGCGAT here?
Answer: 0.0549

Question: ACAGACGA was tested. Which “PBM E-score” value did it give?
Answer: 0.203

Question: For GAGTGGAA, which “PBM E-score” value is on record?
Answer: -0.0959

Question: AGGGCCAA was tested. Which “PBM E-score” value did it give?
Answer: -0.283

Question: Which “PBM E-score” value does the source give for ACGTCAGC here?
Answer: 0.119

Question: For AGCCAATC, which “PBM E-score” value is on record?
Answer: -0.0383

Question: How did the “PBM E-score” value turn out when GCTATGAC was run?
Answer: -0.041

Question: How did the “PBM E-score” value turn out when CCGTCACG was run?
Answer: -0.12

Question: With CATCAAGA as the sequence, how does the “PBM E-score” value read?
Answer: -0.0978

Question: With AACGTAAC as the sequence, how does the “PBM E-score” value read?
Answer: 0.245

Question: AAAAGTCT was tested. Which “PBM E-score” value did it give?
Answer: -0.0158

Question: How did the “PBM E-score” value turn out when TGAATACA was run?
Answer: -0.0538

Question: CAAAATAG was tested. Which “PBM E-score” value did it give?
Answer: -0.197

Question: For AGCATGGA, which “PBM E-score” value is on record?
Answer: -0.303

Question: Which “PBM E-score” value does the source give for AGCGACAG here?
Answer: 0.284

Question: With TACGGCGA as the sequence, how does the “PBM E-score” value read?
Answer: 0.324

Question: For GTACAATA, which “PBM E-score” value is on record?
Answer: 0.156

Question: How did the “PBM E-score” value turn out when AGAGCATC was run?
Answer: -0.226

Question: For GGCGGCGA, which “PBM E-score” value is on record?
Answer: -0.177

Question: With CCGAGTAC as the sequence, how does the “PBM E-score” value read?
Answer: 0.196

Question: With CCTATAAC as the sequence, how does the “PBM E-score” value read?
Answer: -0.0397

Question: Which “PBM E-score” value does the source give for AAGTCGTA here?
Answer: 0.416

Question: Which “PBM E-score” value does the source give for ATATATCG here?
Answer: 0.152

Question: GGGGGCAA was tested. Which “PBM E-score” value did it give?
Answer: -0.144

Question: Which “PBM E-score” value does the source give for ACTCCCTG here?
Answer: -0.33

Question: How did the “PBM E-score” value turn out when CAGACCTC was run?
Answer: 0.0775
